From PubChem BioAssay (NCI)
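Values below derive from 48-hour exposures of cells grown in 96-well plates, with endpoints linearly interpolated between the two concentrations bracketing the appropriate inhibition level. GI50 = concentration required for 50% inhibition of growth. The concentration for full growth arrest is given as TGI.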

These compounds were tested on NCI-H322M lung (assay: inhibition of tumour cell growth, NCI panel, 48 h).
In the case of `CN1CCC(n2cc(Nc3ncc4c(=O)n(-c5c(Cl)cccc5Cl)cc(Br)c4n3)cn2)CC1`, the GI50 is reported as 0.326 µM and the TGI is reported as 14.3 µM.
Compound `Cc1ccc2c(n1)C(=O)C(Cl)=C(Nc1ccc(C(C)C)cc1)C2=O` has a GI50 of 7.45 µM and a TGI of 21 µM.
For `Nc1nc(N)c2c(n1)NC(c1ccccc1)CC(c1ccc(Nc3nc(NCCO)nc(Nc4ccc(Cl)cc4)n3)cc1)=N2` (stereo unspecified), the GI50 was 1.63 µM and the TGI was 3.04 µM.
`C=C1C(=O)O[C@@H]2/C=C(/C)C3=CC(=O)[C@@](C)(C[C@H](OC(=O)/C(C)=C\C)[C@@H]12)O3` was tested, and the TGI was over 32.5 µM.
`CS(=O)(=O)c1nccc(-c2c(-c3cccc(OCc4ccc(Cl)c(C(F)(F)F)c4)c3)nc3sccn23)n1` gave a GI50 of 5.51 µM and a TGI of 11.5 µM.
For `COc1ccc(/C=N/NC2=NC3C(S2)N(C)C(=O)N3C)cc1` (stereo unspecified), the GI50 was 12.5 µM and the TGI was over 100 µM.
